The whole screen tested about 310,000 compounds, of which about 2,200 (0.71%) showed an effect of 50% or more. The effect is printed as a negative number. The list shows a part of the results.
biological target: human ether-à-go-go-related gene (hERG) potassium channel (human, UniProt Q12809); experiment: primary screen, population patch clamp on CHO cells stably expressing hERG
Sequence (Q12809 whole entry, looked up): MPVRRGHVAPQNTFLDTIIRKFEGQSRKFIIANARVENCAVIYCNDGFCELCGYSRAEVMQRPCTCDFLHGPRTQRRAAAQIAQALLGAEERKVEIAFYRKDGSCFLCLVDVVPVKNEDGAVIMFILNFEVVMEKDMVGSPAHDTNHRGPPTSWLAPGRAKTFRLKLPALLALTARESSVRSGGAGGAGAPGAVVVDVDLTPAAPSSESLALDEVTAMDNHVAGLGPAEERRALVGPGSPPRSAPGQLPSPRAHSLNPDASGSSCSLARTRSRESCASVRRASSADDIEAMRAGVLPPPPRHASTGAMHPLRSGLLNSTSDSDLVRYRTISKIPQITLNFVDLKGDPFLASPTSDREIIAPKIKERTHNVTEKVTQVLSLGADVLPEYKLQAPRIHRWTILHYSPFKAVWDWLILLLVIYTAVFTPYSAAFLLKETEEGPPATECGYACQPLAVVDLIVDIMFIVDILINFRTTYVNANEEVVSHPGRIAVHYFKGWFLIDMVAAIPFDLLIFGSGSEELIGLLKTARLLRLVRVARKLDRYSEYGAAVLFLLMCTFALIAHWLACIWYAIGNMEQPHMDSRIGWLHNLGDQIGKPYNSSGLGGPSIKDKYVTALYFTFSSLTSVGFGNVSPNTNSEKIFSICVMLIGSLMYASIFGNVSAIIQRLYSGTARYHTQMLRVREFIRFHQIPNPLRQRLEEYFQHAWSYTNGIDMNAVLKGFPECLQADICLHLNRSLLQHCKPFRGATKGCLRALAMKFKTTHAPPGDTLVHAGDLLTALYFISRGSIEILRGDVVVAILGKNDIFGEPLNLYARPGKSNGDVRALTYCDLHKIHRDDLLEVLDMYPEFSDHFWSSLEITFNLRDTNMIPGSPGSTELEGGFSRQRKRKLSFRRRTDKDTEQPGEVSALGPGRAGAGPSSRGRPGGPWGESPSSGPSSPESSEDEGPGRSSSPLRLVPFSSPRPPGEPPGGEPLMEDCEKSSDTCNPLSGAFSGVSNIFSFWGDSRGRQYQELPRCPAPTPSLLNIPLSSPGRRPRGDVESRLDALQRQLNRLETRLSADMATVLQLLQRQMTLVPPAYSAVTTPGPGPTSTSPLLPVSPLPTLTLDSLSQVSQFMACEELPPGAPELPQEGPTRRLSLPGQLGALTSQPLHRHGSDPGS

Structure (SMILES) | hERG current change (%, negative = inhibition) at 1uM
Cc1ccccc1C(=O)NCC(=O)NNC(=O)c1cccc(Cl)c1 | 12.1%
CCOC(=O)C1(CCOC)CCN(C(=O)Cc2ccc3ccccc3c2)CC1 | 9.92%
CCc1ccc(NC(=O)CCn2ccnc2C)cc1 | 6.77%
Cn1c(C(=O)OC(C(=O)NC2CCCC2)c2ccncc2)cc2sccc21 (stereo not shown) | 9.29%
Cc1nn(-c2c(Cl)cc(Cl)cc2Cl)c(=O)c2ccccc12 | 10.6%
Cc1ccc(NC(=O)NN(C)c2c(Cl)c(Cl)nn2C)cc1 | -5.56%
CC(NC(=O)CCSc1nc(-c2ccc3c(c2)OCO3)cc(C(F)(F)F)n1)c1ccccc1 (stereo not shown) | 9.24%
CCOc1ccc(S(=O)(=O)N(CC(=O)O)c2ccc(C)cc2)cc1 | 6.51%
Cc1nn(-c2ccccc2)c(C)c1C(=O)OC/C(O)=C(\C#N)c1nc2ccccc2[nH]1 | 8.32%
O=c1[nH]c(-c2ccccc2)nnc1-c1ccccc1 | 5.87%
Cc1cc(C)n(CC(=O)N2CCCC(N3CCN(c4ccc(F)cc4)CC3)C2)n1 (stereo not shown) | 1.87%
O=C(Nc1cccc(S(=O)(=O)NC2=NCCC2)c1)c1c(F)cccc1Cl | 6.59%
Cc1cc(C)cc(NCC(=O)Nc2c(C)cccc2C)c1 | 13.6%
COc1ccc(-n2ccnc2SCC(=O)NCc2ccccc2)c(OC)c1 | 19.9%
Cc1oc(-c2cccc(C(F)(F)F)c2)nc1CN1CCC[C@H]1CO | 2.44%
CNCC(O)CN1CCN(c2ccccc2OC)CC1.Cl (stereo not shown) | 8.1%
Cc1ccc(OCCn2ncc3ccccc3c2=O)c(C)c1 | 12.6%
COc1ccc(NC(=O)N2CCC(n3nnc4cc(C)ccc43)CC2)cc1 | -7.74%
CCCCN1C(=O)c2ccc(C(=O)NC3=NCCS3)cc2C1=O | 10.6%
O=C(NNC(=O)c1cccnc1)Nc1cccc(Cl)c1Cl | 12.7%

Structure (SMILES) | hERG current change (%, negative = inhibition) at 1uM
O=C(O)c1c(F)c(F)cc2ccccc12 | 3.1%
COc1ccc(CN(C)C(c2ccccc2)c2nnnn2-c2ccccc2C)c(OC)c1C (stereo not shown) | 11.5%
COc1ccc(CC(=O)Nc2ccccc2C(C)=O)cc1S(=O)(=O)N1CCOCC1 | -15.6%
CC(C)(O)C#Cc1ccc(C(=O)N2CCN(c3ccc(F)cc3)CC2)cc1 | 5.2%
NNC(=O)CSc1ncc(-c2ccccc2)[nH]1 | 15.5%
CC(Sc1ccccn1)C(=O)Nc1ccc2c(c1)OCO2 (stereo not shown) | 11%
C[C@]12CC[C@@H](O)C[C@@H]1CC[C@@H]1[C@@H]2CC[C@]2(C)C(=O)CC[C@@H]12 | 12.2%
COc1cc2c(cc1OC)-c1cc(Nc3ccc(C)cc3)nc(=O)n1CC2 | -0.489%
COc1ccc(S(=O)(=O)N/N=C(/C)c2ccc(C)o2)cc1 | 7.39%
CC(C)C(NC(=O)CSc1ccc(Cl)cc1)C(C)C | 8.13%
O=C(C1CCN(c2nc(-c3ccccc3)nc3c2CCC3)CC1)N1CCCC1 | -11.1%
C=CCn1c(SCC(=O)N2CCOCC2)nc(O)cc1=O | 11.7%
O=C(CN1CCN(c2cccc(C(F)(F)F)c2)CC1)N(C1CCCC1)C1CCS(=O)(=O)C1 (stereo not shown) | 6.67%
CC(=O)OC1N=C(c2ccccc2)c2cc(Br)ccc2N(C)C1=O (stereo not shown) | 4.1%
COCCNCc1ccccc1[N+](=O)[O-] | 8.17%
C=CCn1c(CNS(=O)(=O)c2ccc(F)cc2)n[nH]c1=S | 1.53%
CCCn1c(=O)[nH]c(=O)c2c1nc(-c1ccccc1)n2CCN1CCOCC1 | 6.02%
O=C(CCNC(=O)c1ccc(Br)cc1)NCc1cccnc1 | 12.9%
Cn1ccnc1SCC(=O)Nc1cccc(S(=O)(=O)N2CCCCCC2)c1 | 8.44%
Cc1ccnc(NC(=O)c2ccc(Br)s2)c1.Cl | 5.59%

Structure (SMILES) | hERG current change (%, negative = inhibition) at 1uM
COc1ccc(C2(CNC(=O)c3ccc(OC)c([N+](=O)[O-])c3)CCCCC2)cc1OC | 13.8%
O=S(=O)(NC1CCCCC1Oc1ccccc1)c1ccc(Cl)cc1 (stereo not shown) | -4.69%
O=C(C[n+]1cn(C(F)F)c2ccccc21)c1ccc(Br)cc1.[Br-] | 3.52%
COc1ccc(S(=O)(=O)N2CCOCC2)cc1NC(=O)CNC(=O)c1cccs1 | 15.6%
O=C(Nc1cccc(S(=O)(=O)N2CCCC2)c1)c1ccccc1OC(F)F | 8.5%
Oc1ccc(Br)cc1CNc1cnc2ccccc2c1 | 13.7%
CCc1ccc(NC(=O)[C@H](NC(=O)[C@@H]2Cc3ccccc3CN2)c2ccccc2)cc1 | 6.98%
CCCNS(=O)(=O)c1ccc(OCC(=O)Nc2ccc3c(c2)OCCO3)cc1 | 1.97%
CC(=O)NC1(c2cccc(F)c2)CCN(CC(=O)NC2CCCCC2)CC1 | 2.4%
COc1ccc(/C=C/C(=O)NNC(=O)c2ccncc2)c(OC)c1 | 7.31%
Cc1cccc(C)c1Nc1nnc(SCC(=O)NCc2cccs2)s1 | 2.57%
N#CCC(=O)Nc1ncn(Cc2ccccc2Cl)n1 | 14.3%
O=C(CSc1nnc2sc3ccccc3n12)NCc1ccco1 | 15.4%
COc1cc2c3nnc(-c4ccc(F)cc4)c-3cn(Cc3ccccc3)c2cc1OC | 7.7%
CCn1c(Cl)c(C=O)s/c1=N\S(=O)(=O)c1ccccc1 | 15.2%
COC1c2ccccc2C(=O)N1Cc1ccc(F)cc1 (stereo not shown) | 12.6%
NC(=O)C(c1ccccc1)C1CCCCC1 (stereo not shown) | 4.62%
COCCn1cnnc1SCC(=O)c1ccc(S(=O)(=O)N2CCCC2)cc1 | 10.8%
